This is an account of results in article PMC9975351.

Substrate in the data set: Cc1ccc(N)cc1C(=O)N[C@H](C)c1cccc2ccccc12
As to the kind of experiment: not read. The conditions noted are these: recombinant CYP3A4, 10 min, 95% CI in parentheses, pH 7.4, 37.0 °C.

B1: CYP3A4 (Homo sapiens) (protein)
chain: MALIPDLAMETWLLLAVSLVLLYLYGTHSHGLFKKLGIPGPTPLPFLGNILSYHKGFCMFDMECHKKYGKVWGFYDGQQPVLAITDPDMIKTVLVKECYSVFTNRRPFGPVGFMKSAISIAEDEEWKRLRSLLSPTFTSGKLKEMVPIIAQYGDVLVRNLRREAETGKPVTLKDVFGAYSMDVITSTSFGVNIDSLNNPQDPFVENTKKLLRFDFLDPFFLSITVFPFLIPILEVLNICVFPREVTNFLRKSVKRMKESRLEDTQKHRVDFLQLMIDSQNSKETESHKALSDLELVAQSIIFIFAGYETTSSVLSFIMYELATHPDVQQKLQEEIDAVLPNKAPPTYDTVLQMEYLDMVVNETLRLFPIAMRLERVCKKDVEINGMFIPKGVVVMIPSYALHRDPKYWTEPEKFLPERFSKKNKDNIDPYIYTPFGSGPRNCIGMRFALMNMKLALIRVLQNFSFKPCKETQIPLKLSLGGLLQPEKPVVLKVESRDGTVSGA
Turning to B1, the Km runs as follows: (other: M1 formation) 18.2 (14.8–22.7) µM; (other: M3 formation) 14.8 (12.3–18.0) µM.
